Test results as given in PMC3279423.
Residue numbers refer to the chain shown, from its start. Numbers in names are those of the source. Like-named read-outs stand apart in the source and are kept apart here. No constants are given. Whether binding was seen depends on the method and setting. For part of these data: Binding seen in cells or lysates may run through a third protein. Some results given as binding are weak or reduced against the parent protein; the word gives no strength. For part of these data: Sequences can lack the tags named with a protein. Each block holds one molecule with its values, some of them ahead of it.

Protein sequences, listed by entry. Tags and fused reporters are not part of them.
UniProt Q99816: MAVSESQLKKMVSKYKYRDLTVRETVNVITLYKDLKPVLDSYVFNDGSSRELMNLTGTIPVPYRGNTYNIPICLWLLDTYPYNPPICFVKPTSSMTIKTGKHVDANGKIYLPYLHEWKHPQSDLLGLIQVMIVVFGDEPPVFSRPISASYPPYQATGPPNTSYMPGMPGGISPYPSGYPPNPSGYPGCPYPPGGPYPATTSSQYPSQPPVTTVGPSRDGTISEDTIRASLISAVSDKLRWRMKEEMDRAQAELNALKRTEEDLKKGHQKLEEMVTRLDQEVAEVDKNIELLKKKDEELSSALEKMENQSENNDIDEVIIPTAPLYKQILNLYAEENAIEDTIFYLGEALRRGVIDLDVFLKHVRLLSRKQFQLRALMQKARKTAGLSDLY
UniProt Q7L804: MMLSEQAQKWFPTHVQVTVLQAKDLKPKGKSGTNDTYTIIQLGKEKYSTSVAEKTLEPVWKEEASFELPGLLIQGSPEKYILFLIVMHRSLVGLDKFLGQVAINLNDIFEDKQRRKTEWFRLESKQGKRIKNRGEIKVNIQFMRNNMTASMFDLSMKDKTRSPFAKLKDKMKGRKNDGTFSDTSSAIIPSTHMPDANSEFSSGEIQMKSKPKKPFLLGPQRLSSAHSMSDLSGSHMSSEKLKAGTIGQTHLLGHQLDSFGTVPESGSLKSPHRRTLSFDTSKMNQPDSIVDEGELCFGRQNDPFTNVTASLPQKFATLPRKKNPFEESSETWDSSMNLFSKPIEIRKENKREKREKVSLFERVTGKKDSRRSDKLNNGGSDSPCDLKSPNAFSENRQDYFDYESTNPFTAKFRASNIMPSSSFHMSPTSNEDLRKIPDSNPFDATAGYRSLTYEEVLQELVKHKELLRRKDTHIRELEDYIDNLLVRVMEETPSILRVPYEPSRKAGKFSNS

Columns and labels:
[1] = molecular target: T1, Xpress-FIP3 (pcDNA3.1-HisB/FIP3) (UniProt O75154); test: co-IP; HeLa cells co-transfected; lysate in 125 mM NaCl, 0.5% Igepal CA-630, 50 mM HEPES pH 7.4, 1 mM MgCl2; anti-Xpress antibody on magnetic beads, 3 h at 4°C; blot with anti-GFP
T1 sequence: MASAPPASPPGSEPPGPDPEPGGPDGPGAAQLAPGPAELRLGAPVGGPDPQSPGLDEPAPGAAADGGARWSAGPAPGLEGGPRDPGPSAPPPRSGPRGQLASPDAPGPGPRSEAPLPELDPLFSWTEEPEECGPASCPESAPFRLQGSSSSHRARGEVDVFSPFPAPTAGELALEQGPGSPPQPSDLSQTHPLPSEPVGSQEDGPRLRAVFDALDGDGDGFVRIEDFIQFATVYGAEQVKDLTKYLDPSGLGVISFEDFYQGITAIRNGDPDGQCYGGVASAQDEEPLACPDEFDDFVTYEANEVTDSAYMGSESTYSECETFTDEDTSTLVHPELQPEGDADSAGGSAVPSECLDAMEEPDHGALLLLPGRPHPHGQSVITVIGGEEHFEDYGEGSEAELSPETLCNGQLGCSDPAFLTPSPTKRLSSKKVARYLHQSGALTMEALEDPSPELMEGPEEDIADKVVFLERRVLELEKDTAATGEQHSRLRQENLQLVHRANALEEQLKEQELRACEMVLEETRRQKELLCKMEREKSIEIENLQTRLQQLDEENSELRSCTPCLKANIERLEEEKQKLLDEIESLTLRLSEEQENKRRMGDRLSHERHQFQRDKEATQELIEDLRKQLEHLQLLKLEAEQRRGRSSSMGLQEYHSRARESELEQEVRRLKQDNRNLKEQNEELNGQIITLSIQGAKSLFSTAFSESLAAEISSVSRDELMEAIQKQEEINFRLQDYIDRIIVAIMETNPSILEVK

[2] = molecular target: T2, Xpress-FIP4 (pcDNA3.1-HisB/FIP4) (UniProt Q86YS3); test: as above
T2 sequence: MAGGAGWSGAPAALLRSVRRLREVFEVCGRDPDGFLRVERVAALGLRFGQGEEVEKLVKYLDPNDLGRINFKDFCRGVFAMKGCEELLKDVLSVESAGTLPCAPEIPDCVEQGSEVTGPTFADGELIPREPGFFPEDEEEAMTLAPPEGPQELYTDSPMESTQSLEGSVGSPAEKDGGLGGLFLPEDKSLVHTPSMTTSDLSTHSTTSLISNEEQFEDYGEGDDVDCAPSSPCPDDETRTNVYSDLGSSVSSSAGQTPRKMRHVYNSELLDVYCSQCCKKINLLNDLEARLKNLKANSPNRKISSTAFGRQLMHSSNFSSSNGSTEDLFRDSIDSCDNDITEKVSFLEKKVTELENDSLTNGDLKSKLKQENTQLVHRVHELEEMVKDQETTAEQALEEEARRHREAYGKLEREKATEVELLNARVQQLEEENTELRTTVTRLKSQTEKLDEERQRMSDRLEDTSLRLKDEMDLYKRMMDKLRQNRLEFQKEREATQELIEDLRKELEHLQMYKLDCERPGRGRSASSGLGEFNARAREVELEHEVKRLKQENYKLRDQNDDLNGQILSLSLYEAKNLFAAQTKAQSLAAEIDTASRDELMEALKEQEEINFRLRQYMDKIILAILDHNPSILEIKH

[3] = molecular target: TSG101 (tumor susceptibility gene 101), pVJL10-TSG101 two-hybrid bait (UniProt Q99816); test: two-hybrid; pVJL10 (bait) and pGADGH (prey) constructs co-transformed into S. cerevisiae L40; growth on medium lacking tryptophan, leucine and histidine with 1 mM 3-AT, 30°C
[4] = molecular target: TSG101 (tumor susceptibility gene 101), pVJL10-TSG101 two-hybrid bait (UniProt Q99816); test: as above; remark: listed apart in the source

Molecule: FIP2, pGADGH/FIP2 two-hybrid prey (from UniProt Q7L804 1-512)
binding [3]: no binding

Molecule: LKSKLKQENTQLVHRVHELEEMVKDQETTAEQALEEEARRHREAYGKLE (domain or fragment, UniProt Q86YS3 364-412) [FIP4 364-412 (pGADGH/FIP4 364-412)]
binding [4]: no binding

Molecule: YKRMMDKLRQNRLEFQKEREATQELIEDLRKELEHLQMYKLDCER (domain or fragment, UniProt Q86YS3 475-519) [FIP4 475-519 (pGADGH/FIP4 475-519)]
binding [4]: no binding

B2: FIP4 413-474 (pGADGH/FIP4 413-474) (domain or fragment, UniProt Q86YS3 413-474)
chain: REKATEVELLNARVQQLEEENTELRTTVTRLKSQTEKLDEERQRMSDRLEDTSLRLKDEMDL
binding [4]: no binding

B5: FIP4 A495P (pGADGH/FIP4 A495P) (protein, UniProt Q86YS3 1-637)
chain: T2 sequence with A495P
binding [4]: no binding

B6: FIP4 364-519 (pGADGH/FIP4 364-519) (domain or fragment, UniProt Q86YS3 364-519)
chain: LKSKLKQENTQLVHRVHELEEMVKDQETTAEQALEEEARRHREAYGKLEREKATEVELLNARVQQLEEENTELRTTVTRLKSQTEKLDEERQRMSDRLEDTSLRLKDEMDLYKRMMDKLRQNRLEFQKEREATQELIEDLRKELEHLQMYKLDCER
binding [4]: binds

B7: FIP3, pGADGH/FIP3 two-hybrid prey (protein, UniProt O75154 1-756)
chain: T1 sequence
binding [4]: binds

Now from value to molecule:

binding [1]: binds
binding [2]: binds
Molecule: GFP-TSG101 (from UniProt Q99816 1-390)

binding [4]: no binding
B1: Rip11, pGADGH/Rip11 two-hybrid prey (protein, UniProt Q9BXF6 1-653)
chain: MALVRGAEPAAGPSRWLPTHVQVTVLRARGLRGKSSGAGSTSDAYTVIQVGREKYSTSVVEKTHGCPEWREECSFELPPGALDGLLRAQEADAGPAPWAASSAAACELVLTTMHRSLIGVDKFLGQATVALDEVFGAGRAQHTQWYKLHSKPGKKEKERGEIEVTIQFTRNNLSASMFDLSMKDKPRSPFSKIRDKMKGKKKYDLESASAILPSSAIEDPDLGSLGKMGKAKGFFLRNKLRKSSLTQSNTSLGSDSTLSSASGSLAYQGPGAELLTRSPSRSSWLSTEGGRDSAQSPKLFTHKRTYSDEANQMRVAPPRALLDLQGHLDAASRSSLCVNGSHIYNEEPQGPVRHRSSISGSLPSSGSLQAVSSRFSEEGPRSTDDTWPRGSRSNSSSEAVLGQEELSAQAKVLAPGASHPGEEEGARLPEGKPVQVATPIVASSEAVAEKEGARKEERKPRMGLFHHHHQGLSRSELGRRSSLGEKGGPILGASPHHSSSGEEKAKSSWFGLREAKDPTQKPSPHPVKPLSAAPVEGSPDRKQSRSSLSIALSSGLEKLKTVTSGSIQPVTQAPQAGQMVDTKRLKDSAVLDQSAKYYHLTHDELISLLLQRERELSQRDEHVQELESYIDRLLVRIMETSPTLLQIPPGPPK

binding [4]: binds
B3: FIP4 L375P (pGADGH/FIP4 L375P) (protein, UniProt Q86YS3 1-637)
chain: T2 sequence with L375P

binding [4]: no binding
B4: FIP4 L487P (pGADGH/FIP4 L487P) (protein, UniProt Q86YS3 1-637)
chain: T2 sequence with L487P
